In PMC3961690 one finds pKa data, which are given here for two substances.

Some values that stand alone complete this part of the results.

One data set has as its target Asp455 (UniProt position 474, KPVMLDLYADW). In words: NMR. Particulars: 298 K, 1 mM protein, isolated domain, folded.
In the next data set the target is Cys461 (UniProt position 480, LYADWCVACKE). Description: NMR. Particulars: 298 K, not stated (pH adjusted with 0.1 M DCl or NaOD), 1 mM protein, reduced (Cys-461/Cys-464 dithiol), isolated domain, folded.

Take “DsbD C-terminal domain, Q488K variant (Q488K-cDsbD) (Escherichia coli; Q488K)”: the pKa in the data set with Asp455 (not stated (pH adjusted with 0.1 M DCl or NaOD), oxidised (Cys-461-Cys-464 disulfide), Cys-461 13Cβ reporter) is recorded as 8.2; with Asp455 (not stated (pH adjusted with 0.1 M DCl or NaOD), oxidised (Cys-461-Cys-464 disulfide), Cys-461 Hβ2 reporter), 8.5; with Asp455 (not stated (pH adjusted with 0.1 M DCl or NaOD), oxidised (Cys-461-Cys-464 disulfide), Cys-464 Hβ1 reporter), 8.0; with Asp455 (not stated (pH adjusted with 0.1 M DCl or NaOD), oxidised (Cys-461-Cys-464 disulfide), Cys-464 Hβ2 reporter) it was 8.1; with Asp455 (not stated (pH adjusted with 0.1 M DCl or NaOD), reduced (Cys-461/Cys-464 dithiol), Cys-461 13Cβ reporter), 8.1; with Asp455 (not stated (pH adjusted with 0.1 M DCl or NaOD), reduced (Cys-461/Cys-464 dithiol), Cys-461 Hβ2 reporter), 7.9. Also, the pKa was 7.6 in the data set with Asp455 (not stated (pH adjusted with 0.1 M DCl or NaOD), reduced (Cys-461/Cys-464 dithiol), Cys-464 13Cβ reporter) and 7.0 with Asp455 (not stated (pH adjusted with 0.1 M DCl or NaOD), reduced (Cys-461/Cys-464 dithiol), Cys-464 Hβ2 reporter).

As for “DsbD C-terminal domain, Q488A variant (Q488A-cDsbD) (Escherichia coli; Q488A)”, the pKa with Asp455 (not stated, reduced (dithiol), higher pKa of double sigmoidal fit) is 10.4; with Asp455 (not stated, reduced (dithiol), lower pKa of double sigmoidal fit), 7.3; with Cys461 (pK1 from 13Cβ chemical shift), 7.7; with Cys461 (pK2 from 13Cβ chemical shift), 10.5; in the data set with Cys461 (pK2 from Hβ1 chemical shift), 10.0.

By pKa is commonly meant the negative logarithm of the acid dissociation constant.
